Data reported in PubChem BioAssay AID463173 (ICCB-Longwood Screening Facility, Harvard Medical School, 2010).
Hit rate of the full screen: of about 52,000 compounds, about 1,700 (3.3%) were called active. Cut-off read from the data, not from the text of the source: active = survival mostly below about 52% (no sharp cut-off); inactive = mostly above about 56%. The list shows a part of the results.

The compounds below were run on Wild type (assay: growth inhibition of S. aureus wild type versus tarO mutant, primary screen, teichoic acid synthesis inhibitors, RN4220, OD600 (AID 463173)). Settings: S. aureus RN4220 wild type/DeltatarO growth, OD600, 18 h, stronger effect = lower value, screened at 18.75 µg/mL (by protocol).

Row | Structure (SMILES) | survival
1 | CC1=C(C(=O)Nc2ccccc2)C(c2cccnc2)n2nc(SCc3ccccc3Cl)nc2N1 (stereo unspecified) | inactive: 163%
2 | CCOC(=O)Cn1c(=O)n(C2CCCCC2)c2nc(-c3cccc(F)c3)nc(C(N)=O)c21 | inactive: 70%
3 | Cc1ccc(CSCC(=O)N2CCN(c3ccccc3F)CC2)cc1 | inactive: 45%
4 | Cc1ccc(S(=O)(=O)CC(=O)Nc2sc3c(c2C#N)CCCC3)cc1 | inactive: 123%
5 | CCn1cc(CCC(=O)NCc2ccccc2OC)c2ccccc21 | inactive: 76%
6 | CC(=O)NS(=O)(=O)c1ccc(N=NN2CCCCC2)cc1 | inactive: 133%
7 | O=C(Nc1ccc(Cl)cc1)N1CCC(c2nc(-c3ccc(F)cc3)no2)CC1 | inactive: 101%
8 | Cc1ccc(S(=O)(=O)c2cc3cc(C(=O)O)ccc3oc2=O)cc1 | inactive: 119%
9 | CCOC(=O)c1c(NC(=O)COc2cc(C)ccc2C(C)C)sc(C)c1C | inactive: 67%
10 | O=C(O)CCCNC1C=CS(=O)(=O)C1 (stereo unspecified) | inactive: 105%
11 | CCOc1cccc(C(c2c(C)n(C)n(-c3ccccc3)c2=O)c2c(C)n(C)n(-c3ccccc3)c2=O)c1OC | inactive: 78%
12 | CCOc1ccc(NC(=O)c2nn(C)c3c2CS(=O)(=O)c2ccccc2-3)cc1 | inactive: 83%
13 | Cc1cc2c(cc(C(=O)OC(C(=O)NC3CCCC3)c3ccccc3F)n2C)o1 (stereo unspecified) | inactive: 137%
14 | O=c1[nH]nc(SCc2cccc3ccccc23)c(=O)[nH]1 | inactive: 114%
15 | COc1ccc(CCNC(=O)CCCn2c(=O)c3ccccc3n(CC(=O)Nc3cc(Cl)ccc3C)c2=O)cc1OC | inactive: 88%
16 | CCOc1ccccc1NC(=O)Cn1c(=O)n(-c2ccc(F)cc2)c(=O)c2sc3ccccc3c21 | inactive: 88%
17 | Cc1ccc2nc(-c3cc(NC(=O)/C=C/c4ccccc4)ccc3Cl)oc2c1 | inactive: 65%
18 | O=C(Nc1cccc(OCc2cc(=O)n3c4c(sc3n2)CCCC4)c1)c1ccc(F)cc1 | inactive: 123%
19 | Cc1ccccc1-c1noc(CCC(=O)Nc2cccc(C)c2C)n1 | inactive: 90%

Row | Structure (SMILES) | survival
20 | CCC(=O)N1CCN(c2ccc(NC(=O)COc3ccccc3)cc2)CC1 | inactive: 106%
21 | Cc1ccc(S(=O)(=O)NCc2ccc(/C=C(/C#N)C(=O)NCc3ccccc3)o2)cc1 | inactive: 114%
22 | COc1cc(Cl)c(C)cc1NC(=O)c1cn(C2CCCC2)c(=O)c2c1c1ccccc1n2C | inactive: 95%
23 | COc1ccc(C(=O)Nc2ccc3nc(N4CCC(C)CC4)cc(C)c3c2)cc1 | inactive: 86%
24 | O=C(c1cccc(Cl)c1)N1CCN(CCc2ccncc2)CC1 | inactive: 98%
25 | CCOc1ccc(-c2nnc(SCC(=O)NCCc3ccc(OC)c(OC)c3)nc2-c2ccc(OCC)cc2)cc1 | inactive: 73%
26 | CCC/C(O)=C1\C(=O)CC(C)(C)CC1=Nc1ccccc1OC | inactive: 115%
27 | COc1ccc(Cl)cc1-n1c(/C=C/c2cccc3ccccc23)nc2ccccc2c1=O | inactive: 70%
28 | CCOCCCNC(=O)C(Cc1ccccc1)NS(=O)(=O)c1ccc2c(c1)c(=O)n(C)c(=O)n2C (stereo unspecified) | inactive: 77%
29 | COc1ccc(-c2nc(CSc3nncn4c3cc3occc34)c(C)o2)cc1 | inactive: 112%
30 | O=C(Nc1ccc2c(c1)OCO2)c1ccccc1 | inactive: 117%
31 | CC1CCN(S(=O)(=O)c2ccc(S(=O)(=O)N3CCCN(Cc4ccccc4)C3)cc2)CC1 | inactive: 107%
32 | Cc1nn(C(=O)c2ccc(Br)cc2)c(C)c1S(=O)(=O)N1CCOCC1 | inactive: 71%
33 | CCOc1ccc(CCNC(c2cccc(Cl)c2)c2nnc(-c3ccccc3)o2)cc1OCC (stereo unspecified) | inactive: 89%
34 | Cc1coc2c(C)c3oc(=O)c(CCC(=O)NCCc4ccccc4)c(C)c3cc12 | inactive: 84%
35 | CC(C)C(=O)Nc1cccc(S(=O)(=O)c2cccc(NC(=O)C(C)C)c2)c1 | inactive: 104%
36 | CCc1ccc(-c2[nH]c3c(c2-c2sc(C)c(C(=O)OC)c2O)c(=O)[nH]c(=O)n3C)cc1 | inactive: 28%
37 | COC(=O)CNC(=O)c1c(-c2ccccc2)noc1C | inactive: 86%
38 | CCCCN(CCCC)S(=O)(=O)c1ccc2oc(C(=O)NCc3ccc(C)cc3)c(C)c2c1 | inactive: 92%

Row | Structure (SMILES) | survival
39 | CCCCN1C(=O)C(O)(c2c[nH]c3ccccc23)c2cc(Br)ccc21 (stereo unspecified) | inactive: 78%
40 | Cn1c(NCCO)nc2c1c(=O)n(Cc1cccc(F)c1)c(=O)n2C | inactive: 75%
41 | COc1cccc(/C=C/c2nc(C#N)c(NCCc3ccc(OC)c(OC)c3)o2)c1 | inactive: 60%
42 | COc1ccc(C(=O)N2CCC(C(=O)O)CC2)cc1 | inactive: 100%
43 | CCOc1ccc(CCNC(=O)c2cnc3c(-c4ccc(F)cc4)c(C)nn3c2C)cc1OCC | inactive: 159%
44 | Cc1ccc(NC(=O)Cn2c(=O)n(Cc3ccco3)c(=O)c3sc4ccccc4c32)cc1C | inactive: 126%
45 | O=C(NCCc1ccc(Cl)cc1)c1cnc2sc(N3CCCCC3)nn2c1=O | inactive: 75%
46 | COc1ccc2c(c1)sc1ncc(C(=O)NCc3ccc(OC(C)C)cc3)c(=O)n12 | inactive: 79%
47 | COc1ccc(-c2cc(C(F)(F)F)nc(SCCC(=O)Nc3cc(C)ccc3O)n2)cc1 | inactive: 46%
48 | COC(=O)c1sc(NC(=O)c2ccco2)c(C#N)c1C | inactive: 82%
49 | O=C1CN=C(Nc2ccccc2)N1c1ccccc1 | inactive: 99%
50 | Oc1c(C(c2ccc(Cl)cc2)N2CCC3(CC2)OCCO3)sc2nc(-c3ccco3)nn12 (stereo unspecified) | active: 0%
51 | O=C(NC1CCCCC1)C(c1ccccn1)N(C(=O)Cn1nnc(-c2ccccc2)n1)c1ccc2c(c1)OCO2 (stereo unspecified) | inactive: 111%
52 | CCCC(C(=O)NC1CCCC1)N(C(=O)Cn1nnc(-c2ccc(C)o2)n1)c1ccccc1 (stereo unspecified) | inactive: 114%
53 | CCOc1ccccc1NC(=O)CSc1nc2cc(OC)c(OC)cc2c2nc(-c3ccccc3)nn12 | inactive: 70%
54 | CCn1c(=O)c(C(=O)Nc2ccc(C(C)=O)cc2)nc2ccccc21 | inactive: 74%
55 | O=C(Cn1c(=O)oc2ccccc21)Nc1ccc(C(=O)O)cc1 | inactive: 72%
56 | COc1cc(NC(=O)c2cccc3c2C(=O)N(C2CCCCC2)C3)cc(OC)c1 | inactive: 75%
